{"source": "the supplement of paper PMC11417369", "note": "The other results are listed elsewhere or left out.", "data": [{"test_system": "PfSIP2 AP2 domain 1 (GST-tagged)", "assay": "gcPBM binding intensity (ln(normalized median fluorescence intensity)); higher = stronger DNA binding", "how_it_was_run": "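An Agilent 4 × 180k array carrying primer-extended double-stranded 36-bp intergenic genomic probes and negative controls received GST-tagged P. falciparum DNA-binding domains expressed in E. coli, about 25 μg on average, for 1 h. The binding buffer contained 1× PBS, 1% milk, 0.2 mg/ml BSA, 0.5% salmon testes DNA and 0.03% Triton X-100. Binding intensity is the top Masliner-normalised natural-log median intensity across replicate spots of either probe orientation, read after Alexa488 anti-GST antibody staining and a 488 nm scan.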", "values": [{"sequence": "GCAAATCTTATATGAAGTACATATCTTATAAATAAA [XGTACX_site6903]", "gcPBM binding intensity (ln)": 7.12}, {"sequence": "AGCAAAATGAAATAAATTGGAAAATATTACTGAACG [CACACA_negctrl_site1433]", "gcPBM binding intensity (ln)": 6.91}, {"sequence": "AACAAAGGATTTATATATACATACATACATACATAA [GTGCAC_negctrl_site469]", "gcPBM binding intensity (ln)": 6.96}, {"sequence": "ATAAAAAAAAAAAGAAGTACATGTATTAAAATTTAT [XGTACX_site3927]", "gcPBM binding intensity (ln)": 6.96}, {"sequence": "TGAATTTACAAAATCATGCACTTAATTACAGAATAA", "gcPBM binding intensity (ln)": 8.01}, {"sequence": "GGTACATACAGACACACACACAAAAAAAAAAAAATA [CACACA_site6844]", "gcPBM binding intensity (ln)": 7.17}, {"sequence": "AAAAGTCTTCAAATTTGTACATATATATATATATAT [XGTACX_site3404]", "gcPBM binding intensity (ln)": 9.58}, {"sequence": "TTAATATTAATTATATGTACATATAATATATATATA [XGTACX_site1757]", "gcPBM binding intensity (ln)": 8.51}, {"sequence": "ATCTTTTCATATTGCTGTACAAATTATTTTCATTCG [XGTACX_site492]", "gcPBM binding intensity (ln)": 7.4}, {"sequence": "GAGAAATGGAGACACACACACATATTATATATATAT [CACACA_site1532]", "gcPBM binding intensity (ln)": 8.66}, {"sequence": "TGTATAAAATTCCATTGTACATATTATTTTACGACA [XGTACX_site7764]", "gcPBM binding intensity (ln)": 6.97}, {"sequence": "ATGTTAAACAAATCTATACACACGTATATGACAAAA [CACACA_site1783]", "gcPBM binding intensity (ln)": 7.01}, {"sequence": "GTATACATGCAAATTTTTATTTACAACCCCAAAAAG [XGTACX_negctrl_site255]", "gcPBM binding intensity (ln)": 7.27}, {"sequence": "TTTTCATAATATACATGTACATATATAAATTATTAA [XGTACX_site5206]", "gcPBM binding intensity (ln)": 7.1}, {"sequence": "TTTTTTTCACAAAATACACACAATATATTTTATATC [CACACA_site1138]", "gcPBM binding intensity (ln)": 6.83}, {"sequence": "TATTATAATATGCCTTGTACATATAACAAATTTATT [XGTACX_site108]", "gcPBM binding intensity (ln)": 7.07}, {"sequence": "ATGAACAAGTGGCACACACACATTATAACTAATTTA [CACACA_site5731]", "gcPBM binding intensity (ln)": 7.19}, {"sequence": "TTTATTTATTACTAAAGTACTAAATCATATTATTAT [XGTACX_site2574]", "gcPBM binding intensity (ln)": 6.7}, {"sequence": "TTCTTTTTTTTTATCACACATATTACAATCTAGTGC [CACACA_site4697]", "gcPBM binding intensity (ln)": 7.31}, {"sequence": "AAAATAATATTTCCTTGTACACATATGTATTTGTTC [XGTACX_site4430]", "gcPBM binding intensity (ln)": 7.17}, {"sequence": "TTTTGGATTGAGGACCTTTTTATAGAATTATGTTTT [TGCATGCA_negctrl_site544]", "gcPBM binding intensity (ln)": 6.75}, {"sequence": "ATATATAATTTTTACACACGCAATAAATATATATAT [CACACA_site4283]", "gcPBM binding intensity (ln)": 8.4}, {"sequence": "ATGTTATAAGATTTATGTACACACATATACACACCT [XGTACX_site1316]", "gcPBM binding intensity (ln)": 7.24}, {"sequence": "GTTTCCTTAATATTCACACACATATATATAATATAT [CACACA_site1856]", "gcPBM binding intensity (ln)": 7.55}, {"sequence": "TTAACATAAATATATACACACCAATGATGGCATTTA [CACACA_site4952]", "gcPBM binding intensity (ln)": 6.85}, {"sequence": "TATATATAATATATATGTACGTATATATATAATATA [XGTACX_site8383]", "gcPBM binding intensity (ln)": 7.37}, {"sequence": "AATAAAGCAATAAATACACACATATTTATATTTATA [CACACA_site7390]", "gcPBM binding intensity (ln)": 6.93}, {"sequence": "AAGGGAAAATAATAAAAGAAAAAGAAAAAAAAAAAA [CACACA_negctrl_site1518]", "gcPBM binding intensity (ln)": 6.74}, {"sequence": "TAATGGAGAAAAAAAAAACACACGGTACATTCAAAG [CACACA_site3117]", "gcPBM binding intensity (ln)": 7}, {"sequence": "TATATATATATATATTGTACTTTATATGTTCTTATA [XGTACX_site7545]", "gcPBM binding intensity (ln)": 9.49}, {"sequence": "AAATATTACATTTGTTAAATAATATGTTATACATAA [XGTACX_negctrl_site484]", "gcPBM binding intensity (ln)": 6.96}, {"sequence": "TTTTATAAAGGAAAAGCATGCAGACTAAAAGATCAT [TGCATGCA_site150]", "gcPBM binding intensity (ln)": 7.1}, {"sequence": "GAGAGGAACATTATATGTACATATTAATTCTAAAAT [XGTACX_site5433]", "gcPBM binding intensity (ln)": 6.88}, {"sequence": "ACAAATAAGTTTTATACACACATATAAGTAAATACA [CACACA_site4157]", "gcPBM binding intensity (ln)": 7.05}, {"sequence": "TATAGTGATATATACACACACTTGTCTTGTAAAAAT [CACACA_site6594]", "gcPBM binding intensity (ln)": 6.93}, {"sequence": "ACAATATTTTTTTATAAACACACATATATATAAATA [CACACA_site9175]", "gcPBM binding intensity (ln)": 7.18}, {"sequence": "TGTATAAAAATTTATACACACATTTTATATATTTCA [CACACA_site1015]", "gcPBM binding intensity (ln)": 6.86}, {"sequence": "TATTAATTATTATGACATACATATCAGTTATTAAAA [CACACA_negctrl_site600]", "gcPBM binding intensity (ln)": 6.83}, {"sequence": "TAATCCATAAGAAGCACACACATATATATATATTTT [CACACA_site1399]", "gcPBM binding intensity (ln)": 7.02}, {"sequence": "AAATTTATAAAGAACACACACATATATATATATATA [CACACA_site48]", "gcPBM binding intensity (ln)": 9.31}, {"sequence": "TTTCTTTCGAATGCTTCACACATTACTCTTAAATAG [CACACA_site5265]", "gcPBM binding intensity (ln)": 7.01}, {"sequence": "CAAAACCTAATATGTACACACATATACATCACACTT [CACACA_site7480]", "gcPBM binding intensity (ln)": 7.24}, {"sequence": "AAATGTGAACTATAATAATTTCAACGTCTGATATAA [TGCATGCA_negctrl_site440]", "gcPBM binding intensity (ln)": 6.76}, {"sequence": "ATATATATATATATAGTGCACATTTATATAATTATT", "gcPBM binding intensity (ln)": 10.6}]}]}
